Variants at the background level are over-represented here.
B1: TPR 5TU (parent)
chain: GGAUCUUCUCGAUCUAACAAAAAAGACAAAUCUGCCACAAAGCUUGAGAGCAUCUUCGGAUGCAGAGGCGGCAGCCUUCGGUGGCGCGAUAGCGCCAACGUUCUCAACUAUGACACGCAAAACGCGUGCUCCGUUGAAUGGAGUUUAUCAUG

Variants of: B1
Assay: polymerase ribozyme fitness, log enrichment relative to wild type (log ratio); higher = more active; in vitro selection for triplet polymerase activity
Procedure, shortened: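 Each subunit of a heterodimeric triplet polymerase ribozyme was mutagenized into a library by PCR, transcribed, and subjected to one round of in vitro selection, run in triplicate. Libraries were annealed with a biotinylated primer, the partner subunit and triplets, incubated frozen at −7 °C, and extended constructs were gel-excised, captured on streptavidin beads and recovered by RT-PCR. Input and output libraries were sequenced on Illumina, keeping genotypes with ≥10 input reads and ≥1 read per output. Fitness is log base 2 of genotype enrichment divided by wild-type enrichment, from inverse-variance-weighted replicate averages.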

Row | Variant | polymerase ribozyme fitness (log ratio)
1 | A26C C63A U127A | ≤ -4.2
2 | A24C A107U U134C U146C | ≤ -4.2
3 | A26C A107G | ≤ -4.2
4 | G25U U61A | -3.25
5 | A24C G68U C76A U77C | ≤ -4.2
6 | A26C A29C U31C C93G A110G G124C U135G G140U | ≤ -4.2
7 | A26C C43G C51U G65U C76A G136C | ≤ -4.2
8 | A24G A28U U44A G80U | ≤ -4.2
9 | A24C A29U U78A C93G C132U G152U | ≤ -4.2
10 | A24C G48C C51A C57G A73G C95U U104G C105G | ≤ -4.2
11 | G25A G80A G81A C95U C96A | ≤ -4.2
12 | A24U A26U G42U U78A A91U C93G A122C | ≤ -4.2
13 | A24U U33G C85A C131G U146C | ≤ -4.2
14 | A26C A41C C76G C85G G88A A98G | ≤ -4.2
15 | G25U C85U A98G U148C | ≤ -4.2
16 | A24G A28U G34A A49U U101A | ≤ -4.2
17 | G25U A91U C95A C96A | ≤ -4.2
18 | G25U C87U C93G A138U | ≤ -4.2
19 | A24U A26U C54A G92A G141C | ≤ -4.2
20 | G25U C43G U78C G100A C108U A110G G141A | ≤ -4.2
21 | G25C A28U G42A A60U C96U U145G | ≤ -4.2

Row | Variant | polymerase ribozyme fitness (log ratio)
22 | A24U A37C G67C G70C A138U U146A | ≤ -4.2
23 | A24G U61C U82G C95U | ≤ -4.2
24 | A24C C36A G86A | ≤ -4.2
25 | A24G U45A A73G C76G U82G G143U | ≤ -4.2
26 | G25C A40C U45G U90A | ≤ -4.2
27 | A24G G58A G62U C69U C93G G128A | ≤ -4.2
28 | A24U A52G | 0.771
29 | A24U U53A G81A C116G A138G | ≤ -4.2
30 | A24C C85U A120C U146A | ≤ -4.2
31 | A26C A30U C38G A73G G74C G84A G88U A98U A106U C114U G136U U148A | ≤ -4.2
32 | A24G A30G G84U A122G | ≤ -4.2
33 | A26G A29C C43G C96G U144A | ≤ -4.2
34 | G25A A89U C95G | -4.2
35 | A24C C118U C125U | ≤ -4.2
36 | A26G G84A C99A U102A C116G | ≤ -4.2
37 | A26C A52C C93A C96A A121U C132U U134C U146A | ≤ -4.2
38 | A26G A28G C87A C105G C108U C125A | ≤ -4.2
39 | A24U C35G C51G A60C G65A A91U C131G U134C U148C G152A | ≤ -4.2
40 | A24G U31C G42C A52U A115C | ≤ -4.2
41 | A24G U78A | ≤ -4.2
42 | A24C U53C C118U A142C | ≤ -4.2

Row | Variant | polymerase ribozyme fitness (log ratio)
43 | G25C A52C G58C G59C A138U | ≤ -4.2
44 | A24G A60U C72G C87G C125U U130G A142U | ≤ -4.2
45 | G25U A39C C51U A106G C108U | ≤ -4.2
46 | A26C A28C A40G A41U G59C C75A C116U C149A | ≤ -4.2
47 | A26G G88C U101C G141A | ≤ -4.2
48 | G25C G46A U144C | -4.12
49 | A24U A47C G71C A97U A98G C129G | ≤ -4.2
50 | A24C G42U U44G U61A G80C A110U | ≤ -4.2
51 | G25U C35U A49U G68A G81A U109G C118U G126C | ≤ -4.2
52 | A24C G46C A73G C93A A110U A147U | ≤ -4.2
53 | G25A A41C U45G G59C U90A C93A | ≤ -4.2
54 | A26C C69U U134A G143U | ≤ -4.2
55 | A24U G42A C87U A107C | ≤ -4.2
56 | A26G A40G C43A U53A G67U C69G A115U A121G U146C A147C | ≤ -4.2
57 | A26C G81A C87U G88C G124C G136U G140C | ≤ -4.2
58 | A24C C76U C87A C95U | ≤ -4.2
59 | A24G A28C A49C C51G A91U G92A C114G A119G G136C | ≤ -4.2
60 | A24G G50U C95U C96A A106C U139C G140U | ≤ -4.2
61 | G25C C27U G86A A107U C116U | ≤ -4.2
62 | A24C C87G | ≤ -4.2
63 | G25C U44A G62C C79U G92U A147G | ≤ -4.2

Row | Variant | polymerase ribozyme fitness (log ratio)
64 | G25C C32G A37C U56C G68C G74A C87U A142C | ≤ -4.2
65 | A24C A30C C35U G68A C87U C125A G136A | ≤ -4.2
66 | A24G A39C C96G C99U A138G U139C U148A | ≤ -4.2
67 | A24U A26U G65U G88U G94U A98G G124U G143U | ≤ -4.2
68 | A24G A66G C85A A91U U127C G133A U134A | ≤ -4.2
69 | A24U U61A A89U C95G G133C | ≤ -4.2
70 | A24U A30U G68C U148C U151A | ≤ -4.2
71 | A24C G48U G74A U90G C93A | ≤ -4.2
72 | A24U A41U A91G A137C U139G | ≤ -4.2
73 | G25C C54A U101G | ≤ -4.2
74 | A26C C38G G68C C76U G84U U139G | ≤ -4.2
75 | A24U A60U A64C C79A A119U | ≤ -4.2
76 | A24U G86A G143C U148G | ≤ -4.2
77 | A26C G68A G84C C85A C114U | ≤ -4.2
78 | A24G C123U C132U U134A | ≤ -4.2
79 | G25A G34U C35G C85G | -4.2
80 | A26G A49G C57U G59A C72A | ≤ -4.2
81 | A24G C54G G58U A60G C93G U145G | ≤ -4.2
82 | G25C C76U C85U C103U A142C | ≤ -4.2
83 | G25C A28U U61A G68C | ≤ -4.2
84 | G25U C27U C93U G143U | ≤ -4.2

From the RNAGym collection of RNA variant scans (doi:10.1073/pnas.2313332121)
